Some of the results follow.
Biological target: T1, OsWOX13 (Oryza sativa, UniProt Q5QMM3 1-267)
T1 sequence: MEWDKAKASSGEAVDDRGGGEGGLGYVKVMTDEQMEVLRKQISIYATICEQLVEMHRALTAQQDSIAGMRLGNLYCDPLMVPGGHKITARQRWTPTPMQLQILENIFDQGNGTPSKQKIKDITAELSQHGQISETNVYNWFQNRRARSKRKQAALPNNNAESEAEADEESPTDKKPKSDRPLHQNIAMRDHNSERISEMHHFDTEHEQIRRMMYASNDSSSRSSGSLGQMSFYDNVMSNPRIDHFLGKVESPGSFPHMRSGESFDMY
Assay: protein-binding microarray (RPBM); PBS, 2% BSA, 51.3 ng/ul salmon testes DNA, 50 uM zinc acetate, 200 nM TF, 25 C, 1 h; high values mean tight binding
Settings: protein: recombinant; tags: N-terminal polyhistidine and DsRed monomer fusion (pET32a); label: CyDye5-dUTP incorporated in the synthesized complementary strand; 3' TTTTT single-stranded linker to array surface; dsDNA, one strand shown
Method in brief: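 For the binding signal, per-feature fluorescence intensity was read in arbitrary units on an Axon 4000B scanner. Before scanning, a 2% BSA-blocked custom Agilent array made double-stranded with Cy5-dUTP was washed after 1 h at 25 °C with 200 nM protein and 50 µM zinc acetate. The proteins were Ni–NTA-purified transcription factors with N-terminal polyhistidine and DsRed fusions, expressed in E. coli BL21-CodonPlus.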

Sequence	binding signal
AGTAATTAAATCTTGAAACTTGACACATTGAACCATCAAACGGAGTCACCTAGTGCAG	10300 fluorescence intensity (a.u.)
CACTCTAATTTGTGGACTACTACAGCTATTTGTTGATACCCGGAGTCACCTAGTGCAG	14100 fluorescence intensity (a.u.)
AATGCCATTATGATATGATTAATTAAGTATTAACTATGATCGGAGTCACCTAGTGCAG	9040 fluorescence intensity (a.u.)
TATTACTAAATCTCATGCATGATTGACGAATACTTGCATACGGAGTCACCTAGTGCAG	18200 fluorescence intensity (a.u.)
CCCTGACCTCTTAATTACTCCCTCTCTCTCACACTCACACCGGAGTCACCTAGTGCAG	6570 fluorescence intensity (a.u.)
GTGGTTCTGAATTTTGATTGCTTCGTGCTTTTCGTTTGGGCGGAGTCACCTAGTGCAG	6990 fluorescence intensity (a.u.)
AGAGTACATGATTACCACCAAACACTGGGATGTACTTATACGGAGTCACCTAGTGCAG	6510 fluorescence intensity (a.u.)
TTCATAACTTTATTTCTCAATCAATCATAAACTTGTCCCACGGAGTCACCTAGTGCAG	27000 fluorescence intensity (a.u.)
GATGACTTTGTCAATCTCAAGATATGCTCATAGGGGATAGCGGAGTCACCTAGTGCAG	10500 fluorescence intensity (a.u.)
AAAGATTATGAATTATGGATATTAGGAGAGAACTGGGATACGGAGTCACCTAGTGCAG	5070 fluorescence intensity (a.u.)
AGCTAAATTGCAGCTGCTGTGCAGCAGCTGTGCTACAGTGCGGAGTCACCTAGTGCAG	3790 fluorescence intensity (a.u.)
TTGGCTTTGGATTGAACAATTCGGTGGATAGACGTGTAGACGGAGTCACCTAGTGCAG	3540 fluorescence intensity (a.u.)
ACATAAAATATAGTCTGATGAGTGATGATAGCCCTAACATCGGAGTCACCTAGTGCAG	4610 fluorescence intensity (a.u.)
TTTGGTAATTGTACATGCCGGGTATTATATTGTTCTGACGCGGAGTCACCTAGTGCAG	6530 fluorescence intensity (a.u.)
CTTAATTAATGCAATGACAATTTAGGTGGGGAACCTCTCCCGGAGTCACCTAGTGCAG	42200 fluorescence intensity (a.u.)
AATTGTTTGATTGAAATTAATGTACTCTTGAATGGATAAACGGAGTCACCTAGTGCAG	32600 fluorescence intensity (a.u.)
CTCTAAATTAGTGTTTAAATATATGGACTAAAGTTAAGTCCGGAGTCACCTAGTGCAG	33400 fluorescence intensity (a.u.)
GTAAATCAATTTAGTTATATGTTCTATCTAGCCTGTAACTCGGAGTCACCTAGTGCAG	18200 fluorescence intensity (a.u.)
TTCTAATTTCTAACGAGTTTATCTCTCTCATCCAATTCCTCGGAGTCACCTAGTGCAG	8040 fluorescence intensity (a.u.)
CATATAAATTGGGAAGCCAAGTCCCAGCTTCTGAAAGCATCGGAGTCACCTAGTGCAG	16900 fluorescence intensity (a.u.)
GAGTCTAATTAGTCTATGATTAGTCATAAGTGCTATAGTACGGAGTCACCTAGTGCAG	39300 fluorescence intensity (a.u.)
CTACCATGTTTTAATTAACAAACCAAATGGAAGATCATGACGGAGTCACCTAGTGCAG	7490 fluorescence intensity (a.u.)
AGCCTAAATCATTTTATTGATGCTAAAATCCCACTGTACACGGAGTCACCTAGTGCAG	4330 fluorescence intensity (a.u.)
CTATATAACCGCCAATCCTCTCACTGACGAACGCCAAGAGCGGAGTCACCTAGTGCAG	3630 fluorescence intensity (a.u.)
TCTTAATTAATATAATGTCACATAAGTTAAAAGTTCTAGTCGGAGTCACCTAGTGCAG	41000 fluorescence intensity (a.u.)
TAATTTAACGGGAACTAATTTGGTGTTGTAGATGTTGCTACGGAGTCACCTAGTGCAG	11600 fluorescence intensity (a.u.)
ATTTATAATTAGAGAATGTTTACTGTAGCATCACGCGGGCCGGAGTCACCTAGTGCAG	11100 fluorescence intensity (a.u.)

Sequence	binding signal
GATGATAAATTTATCTGTGATCCTCAAGAAAAGCTTGGAACGGAGTCACCTAGTGCAG	24100 fluorescence intensity (a.u.)
CAGTAGATTTGGATTAATAATTTAAGATCGCAGTAAGGTTCGGAGTCACCTAGTGCAG	28600 fluorescence intensity (a.u.)
AGATGCTGATTGGTTGCGAACTATCTGTTCAATTTGCATCCGGAGTCACCTAGTGCAG	46300 fluorescence intensity (a.u.)
TATTTTCCAATTAACCCATTTGGCATTGGTAGGATCTAGACGGAGTCACCTAGTGCAG	4650 fluorescence intensity (a.u.)
ACATGATTACTTCTCACGTTTGCGTGCCCTGAGTTCTCTCCGGAGTCACCTAGTGCAG	36000 fluorescence intensity (a.u.)
GAGACAAATCTTTTAAGCCTAATTGCTCCATGATTTGACACGGAGTCACCTAGTGCAG	15800 fluorescence intensity (a.u.)
CACGGGATTAGTAATTTTGTACTACTAGTGTGCCGTAGTTCGGAGTCACCTAGTGCAG	19900 fluorescence intensity (a.u.)
GTGGACGCTTGTAATTGGCTAGGTGACAAATCTCATCTGCCGGAGTCACCTAGTGCAG	18200 fluorescence intensity (a.u.)
ATTGATAGTCTAAGTTATAAAAGTTTGACCATTTCCACTACGGAGTCACCTAGTGCAG	6720 fluorescence intensity (a.u.)
GTGAATTTGATAGGGCGATAAGGATAATAAACAAGAACATCGGAGTCACCTAGTGCAG	3540 fluorescence intensity (a.u.)
ATTGATAATTACTTAAGTTTATTGAATAAGACGAACAGTCCGGAGTCACCTAGTGCAG	33700 fluorescence intensity (a.u.)
AGACCCTGACAGTCTGACAGAATCCAGGTACAGAGTTCTACGGAGTCACCTAGTGCAG	5500 fluorescence intensity (a.u.)
GTTAATTTGAACAACATTGGTTAGAGATAACATGAATTTACGGAGTCACCTAGTGCAG	11600 fluorescence intensity (a.u.)
CAAGAGAGTATGGGAGATTGACAAGTGGACCCATGGGCAACGGAGTCACCTAGTGCAG	4220 fluorescence intensity (a.u.)
CAACCGCATAAATTGTTTCGCACTTACAGCTGGACCCTATCGGAGTCACCTAGTGCAG	3440 fluorescence intensity (a.u.)
ATAATGGGAAATGTGGGGTAGGATTGGTATTGGAAAATGACGGAGTCACCTAGTGCAG	3410 fluorescence intensity (a.u.)
GGACTAATTAGATTCAAAAGGTTCGTCTCGAGCTATCTATCGGAGTCACCTAGTGCAG	28100 fluorescence intensity (a.u.)
TTGCAAAACTGGCTTAATTGATTCCATATTTCCATTCCACCGGAGTCACCTAGTGCAG	32200 fluorescence intensity (a.u.)
ACGTGACATACTACATGTAAATAATTTTACCTTTTATCTTCGGAGTCACCTAGTGCAG	3950 fluorescence intensity (a.u.)
TCAAATTCAAATTATTGAAACAGATCAATATGGCAAAATGCGGAGTCACCTAGTGCAG	8760 fluorescence intensity (a.u.)
CCACTAATTCCTAATACTTAACATGCAAAGATGCCACATCCGGAGTCACCTAGTGCAG	6370 fluorescence intensity (a.u.)
ACAAACACGTAATAACATTAATTTCAATCTACACATCATACGGAGTCACCTAGTGCAG	9270 fluorescence intensity (a.u.)
AAAATTTCAGCTCCAATCATCCAAAATCTTCCACATATACCGGAGTCACCTAGTGCAG	6860 fluorescence intensity (a.u.)
AGATAAATTAAATAGTGGAATATTGTGATTTGATAAGAAGCGGAGTCACCTAGTGCAG	12200 fluorescence intensity (a.u.)
GTCCTGTTTGATTAAGCTTAGGATTATTATAATCTGCATTCGGAGTCACCTAGTGCAG	6460 fluorescence intensity (a.u.)
GAGTTTAATTAGAATCCTTATACCACAATACTAGACATCTCGGAGTCACCTAGTGCAG	12800 fluorescence intensity (a.u.)
CATCCTCAATTAATTGGACATTCTATCTGTACGTGTACATCGGAGTCACCTAGTGCAG	32700 fluorescence intensity (a.u.)
